# Screen size: about 48,000 compounds; about 1,200 (2.5%) were called active. About 2% were inconclusive and are not listed.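 Rule for the calls: active = activation of at least 60% and not above a set upper limit (about 1 call in 100 departs from these limits); inconclusive = activation of 40% to 60%, or above that upper limit; inactive = activation under 40%.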 Some of the results follow.
# Target: Probable G-protein coupled receptor 32 (Homo sapiens) (UniProt O75388)
# Assay: qHTS for Agonists of Human Resolvin D1 Receptor DRV1; note: 0% is about no effect
# Details: CHO-K1 GPR32 beta-arrestin PathHunter luminescence, 90 min; at 76.9 µM; stronger effect = higher value; zero percent set by DMSO-only wells
# Outline: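 Agonism was scored by beta-Gal fragment complementation (chemiluminescent read, 1 h detection at ambient temperature) reporting beta-arrestin binding to GPR32 in engineered CHO-K1 cells. Compound treatment lasted 90 min at 37 C, normalized to a DMSO basal control.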
# Chain of UniProt O75388 (O75388 whole entry, looked up): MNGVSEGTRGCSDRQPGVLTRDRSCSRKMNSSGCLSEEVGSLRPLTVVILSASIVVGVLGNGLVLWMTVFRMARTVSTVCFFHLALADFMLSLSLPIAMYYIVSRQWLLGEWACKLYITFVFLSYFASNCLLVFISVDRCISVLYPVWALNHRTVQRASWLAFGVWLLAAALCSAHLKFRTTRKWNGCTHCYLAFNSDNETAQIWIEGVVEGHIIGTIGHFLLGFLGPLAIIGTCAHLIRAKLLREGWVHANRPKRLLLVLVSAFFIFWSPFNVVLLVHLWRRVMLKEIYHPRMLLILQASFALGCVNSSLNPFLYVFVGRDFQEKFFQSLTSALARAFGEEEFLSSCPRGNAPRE
row,SMILES,activation
1,COc1ccc(CCN2CCC(CNC(=O)c3cnn(-c4cccc(Cl)c4)c3C3CCN(C(=O)OC(C)(C)C)CC3)CC2)cc1,inactive: -20.8%
2,Cc1cccc(Cn2c(Cc3ccccc3)nc3ccccc32)c1,inactive: -42.4%
3,O=C(CN1c2ccccc2S(=O)(=O)c2ccccc21)Nc1cccc(C(F)(F)F)c1,inactive: 1.8%
4,CSc1ccc(CCNC(=O)c2c(C)oc3ncn(C)c(=O)c23)cc1,inactive: -0.32%
5,CCOc1cc(S(=O)(=O)NCCc2c(C)[nH]c3ccc(C)cc23)ccc1Br,inactive: 24.5%
6,Cc1cc(C)cc(-n2c(SCC(=O)NC3CCCCC3)nc3c([nH]c4ccccc43)c2=O)c1,inactive: -11%
7,Cc1c(Cl)cccc1Nc1nn2c(=O)c3ccc(C(=O)N(C)Cc4ccccc4)cc3nc2s1,inactive: -6.34%
8,COc1ccc(NC(=O)c2cc3c(C)nn(-c4ccccc4)c3s2)c(OC)c1,inactive: -9.51%
9,Cc1ccc2nc(COc3cccc(NC(=O)COc4ccc(F)cc4)c3)cc(=O)n2c1,inactive: -0.254%
10,Cc1ccc(NC(=O)CCS(=O)(=O)c2ccc3c(c2)oc(=O)n3C)c(Br)c1,inactive: -0.886%
11,O=c1[nH]c(SCc2c(F)cccc2Cl)nc2c1CCCC2,inactive: 19.5%
12,COc1ccc(-c2nc(CSCC(=O)N3CCN(c4ccccc4)CC3)c(C)o2)cc1,inactive: -0.536%
13,COc1ccc(N2CCN(C(=O)CSCc3ccc(C)cc3)CC2)cc1,inactive: -24.9%
14,CC(=O)c1cccc(NS(=O)(=O)c2cccc(S(=O)(=O)c3ccc(Br)cc3)c2)c1,active: 62.9%
15,CN(C)C(=O)/N=N/C(=O)N(C)C,inactive: 17.1%
16,COCCNC(=O)c1[nH]c2cc(C)ccc2c1Sc1ccc(Cl)cc1,inactive: -16.7%
17,O=C(Nc1cccc(-c2nc3ccccc3o2)c1)c1cccc2c(Cl)cccc12,inactive: -6.12%
18,Cc1c(Cl)cccc1NC(=O)c1cc2nc(-c3ccc4c(c3)OCO4)cc(C(F)(F)F)n2n1,inactive: 3.99%
19,CC(C)OC(=O)OCOP(=O)(CO[C@H](C)Cn1cnc2c(N)ncnc21)OCOC(=O)OC(C)C,inactive: 7.67%
20,O=C(COc1ccccc1)OCc1cc(=O)n2nc(-c3cccs3)sc2n1,inactive: -0.94%
21,CC(C)(C)OC(=O)N1CCC(c2c(C(=O)Nc3ccc4c(c3)OCO4)cnn2-c2ccccc2)CC1,inactive: 3.59%
22,CCc1nn(CC(=O)NC(C)CC)c(=O)c2cc3occc3n12 (configuration not stated),inactive: 1.99%
23,COc1ccc(CNC(=O)c2cnc3ccc(C)cn3c2=O)cc1,inactive: 5.46%
24,COc1cccc(OCCn2c(-c3ccc(Br)cc3)nc3ccccc3c2=O)c1,inactive: -9.89%
25,O=C(NCc1ccc2c(c1)CCN2C(=O)c1ccncc1)c1ccccc1F,inactive: -15.6%
26,COC(=O)c1c(-c2cccs2)csc1NC(=O)c1ccc(C(C)C)cc1,inactive: -3.72%

row,SMILES,activation
1,COc1ccccc1CNc1ncnc2c1nnn2C,inactive: 4.22%
2,CCOCCCn1c(=N)c(S(=O)(=O)c2ccc(Cl)cc2)cc2c(=O)n3cccc(C)c3nc21,inactive: -3.67%
3,COC(=O)c1ccccc1NC(=O)CCS(=O)(=O)c1nc(-c2ccc3c(c2)OCO3)cc(C(F)(F)F)n1,inactive: -12.8%
4,COc1ccc(CNC(=O)CCNS(=O)(=O)c2ccc3c(c2)CCCC(=O)N3)cc1,inactive: 16.2%
5,Cc1ccc(Cn2c(CCNC(=O)C(C)C)nc3ccccc32)cc1,inactive: -10.6%
6,Cc1ccc(Cl)cc1N(C)C(=O)C1CCCN(c2ncnc3onc(-c4ccc(F)cc4)c23)C1 (configuration not stated),inactive: -22%
7,COc1ccc(-c2nc(SCC(=O)NCc3ccccc3Cl)n[nH]2)cc1,inactive: -6.83%
8,O=C(Cn1nc(-c2ccc(Cl)cc2)ccc1=O)NCCc1ccccc1,inactive: -7.07%
9,C=C1C[C@@]23CC[C@H]4[C@@](C)(CCC[C@@]4(C)C(=O)OC4OC(CO)C(O)C(O)C4O)[C@@H]2CC[C@]1(OC1OC(CO)C(O)C(O)C1OC1OC(CO)C(O)C(O)C1O)C3 (some centres not stated),inactive: -2.41%
10,CCOC(=O)CCc1c(C)nc2c(c(C)nn2-c2ccc(C)cc2)c1C,inactive: -1.52%
11,O=C(C1CCC1)N1CCc2cc(S(=O)(=O)NCCc3ccccc3)ccc21,inactive: 3.83%
12,Cc1nn(-c2ccc(N3CCCC3)nn2)c(C)c1CCC(=O)N1CCN(c2ccccc2F)CC1,inactive: -15.3%
13,CCOC(=O)c1cnc(N2CCN(c3ccc(OC)cc3)CC2)c2ccccc12,inactive: -34.5%
14,CC1CCN(S(=O)(=O)c2csc(C(N)=O)c2)CC1,inactive: -8.37%
15,COc1ccccc1N1CCN(c2ncnc3c2c(-c2ccccc2)cn3-c2cccc(C)c2)CC1,inactive: -6.72%
16,CCOC(=O)c1c(S(=O)(=O)NCC(=O)N(C)Cc2ccccc2)c(C)n(C)c1C,inactive: 0.271%
17,CCN1CCN(c2ncnc3c2cnn3-c2cc(Cl)ccc2C)CC1,inactive: 20.7%
18,O=C(CSc1oc(-c2ccc(F)cc2)nc1S(=O)(=O)c1ccc(Br)cc1)NC1CCCCC1,inactive: -10.8%
19,CCCOc1ccc(C2c3c(oc4ccc(F)cc4c3=O)C(=O)N2CCc2ccc(OC)cc2)cc1 (configuration not stated),inactive: 13.6%
20,CCOc1ccc2c(c1)c(=O)c(S(=O)(=O)c1ccc(C)cc1)cn2Cc1ccccc1Cl,inactive: -20.9%
21,CC(=O)Nc1nonc1-c1nnc(SCC(=O)Nc2ccc(C)c(Cl)c2)n1C,inactive: -6.35%
22,COc1ccc(-c2nc(S(=O)(=O)c3ccc(C)cc3)c(N3CCCCC3)o2)cc1,inactive: -40.9%
23,Cc1ccc(CNC(=O)CN2C(=O)CC(c3ccc(C)c(C)c3)=Nc3ccccc32)cc1,inactive: -15.3%
24,CCCCOC(=O)c1ccc(Nc2ncnc3c2cnn3-c2cccc(C)c2)cc1,inactive: -0.826%
25,Cc1cccc(CN2CCC(CNc3ncnc4onc(-c5ccc(Cl)cc5)c34)CC2)c1,inactive: -3.53%
26,Cc1ccc(-c2nnc3c4ccccc4c(C)nn23)cc1NC(=O)c1cccc(Br)c1,inactive: -14.9%
